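Growth conditions: 96-well plates. Treatment: test compound, 48 hours, 5 concentrations. Analysis: linear interpolation between bracketing concentrations; unreached endpoints set to highest concentration. The concentration for 50% growth inhibition is given as GI50. TGI marks complete inhibition of growth.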
System: NCI-H322M lung
Test: growth of human tumour cells (NCI), 48 h

Q: How did the GI50 turn out when `CCCCCc1ccc(S(=O)(=O)Nc2cc(-c3csc(NC(=O)CN4CCN(C)CC4)n3)ccc2OC)cc1` was run?
A: Its GI50 is 1.28 µM.

Q: And the TGI?
A: Its TGI is 3.96 µM.

Q: `COc1ccc(-c2nc3cc(Cl)c(Cl)cc3n2CC(=O)N=Nc2c(O)[nH]c3ccc(Cl)cc23)cc1` was tested. Which GI50 did it give?
A: Its GI50 is 1.75 µM.

Q: What about the TGI of the same molecule?
A: Its TGI is 3.63 µM.

Q: With `CCCCCc1ccc(S(=O)(=O)N(C(C)=O)c2cccc(-c3csc(N(CCN4CCN(C)CC4)C(C)=O)n3)c2)cc1` as the molecule, how does the GI50 read?
A: Its GI50 is 3.24 µM.

Q: And the TGI?
A: Its TGI is 6.46 µM.

Reference: PubChem BioAssay (NCI)
